Results as given in PubChem BioAssay AID488969 (Vanderbilt High Throughput Screening Facility, 2010).
Over roughly 110,000 compounds, “z-score” has its median near -0.1; the highest 2% begin near 2. Some of the results follow.

These compounds were tested against Metabotropic glutamate receptor 8 (Rattus norvegicus) (UniProt P70579) (assay: rat mGluR8 modulators via GIRK flux, primary screen, cell-based, thallium flux, HTS (AID 488969)). Conditions: HEK293 rat mGluR8, GIRK (G protein-gated inwardly rectifying potassium channel) thallium flux, FluoZin2; at 10 µM; stronger effect = higher value; submaximal glutamate (EC20) added with thallium.
Sequence of UniProt P70579 (P70579 whole entry, looked up): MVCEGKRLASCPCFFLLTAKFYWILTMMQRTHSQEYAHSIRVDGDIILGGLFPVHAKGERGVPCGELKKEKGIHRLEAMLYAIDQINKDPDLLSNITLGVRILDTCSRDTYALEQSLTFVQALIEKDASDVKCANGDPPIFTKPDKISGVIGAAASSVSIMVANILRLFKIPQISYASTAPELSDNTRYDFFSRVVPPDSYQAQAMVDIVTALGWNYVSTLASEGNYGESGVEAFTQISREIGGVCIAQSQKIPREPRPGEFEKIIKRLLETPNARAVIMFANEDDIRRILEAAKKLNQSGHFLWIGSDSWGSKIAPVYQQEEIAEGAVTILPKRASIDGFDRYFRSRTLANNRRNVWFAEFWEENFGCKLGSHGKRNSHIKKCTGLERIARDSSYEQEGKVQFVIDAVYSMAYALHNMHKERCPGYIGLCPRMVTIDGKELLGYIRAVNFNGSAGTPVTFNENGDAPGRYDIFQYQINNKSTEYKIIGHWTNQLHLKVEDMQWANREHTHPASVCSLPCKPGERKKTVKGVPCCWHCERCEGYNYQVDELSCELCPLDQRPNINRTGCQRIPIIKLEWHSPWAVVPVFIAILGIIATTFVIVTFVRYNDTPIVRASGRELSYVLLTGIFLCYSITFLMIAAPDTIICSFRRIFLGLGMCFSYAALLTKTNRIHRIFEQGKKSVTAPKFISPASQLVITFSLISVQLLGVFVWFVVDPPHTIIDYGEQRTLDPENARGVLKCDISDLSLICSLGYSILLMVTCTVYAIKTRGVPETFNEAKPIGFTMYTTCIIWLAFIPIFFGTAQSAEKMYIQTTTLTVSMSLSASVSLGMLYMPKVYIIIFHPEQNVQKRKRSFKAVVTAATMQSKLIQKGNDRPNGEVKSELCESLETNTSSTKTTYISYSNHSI
With `OC(CN1CCN(Cc2ccc3c(c2)OCO3)CC1)c1c[nH]c2ccccc12` (stereo unspecified) the z-score was 0.203. In the case of `COc1ccc(S(=O)(=O)N2Cc3ccccc3CC2C(=O)Nc2nccs2)cc1` (stereo unspecified), the z-score is reported as -0.194. `CCOCCCNC(=O)c1ccc2c(c1)OCO2` showed a z-score of 0.309. `CCCOc1ccc(C(=O)N2CCCc3ccccc32)cc1` was tested, and the z-score was -0.388. Compound `O=C(N/N=C/c1cc(Cl)ccc1O)C(=O)Nc1ccccc1OC(F)(F)C(F)F` has a z-score of -0.276. Compound `O=C(COC(=O)c1cc[n+]([O-])cc1)Nc1ccc2c(c1)OCCO2` has a z-score of -0.0257. For `Cc1c(Cl)c(-c2n[nH]c(=S)n2Cc2ccco2)nn1C`, the z-score was -0.274. In the case of `CCc1ccc(C(=O)NC(C(=O)O)C(C)C)cc1` (stereo unspecified), the z-score is reported as 0.403. In the case of `CCn1c(SCC(=O)NCCc2ccccc2)nnc1-c1cccs1`, the z-score is reported as 0.562. Work on `CCOC(=O)N1CCN(c2nc(-c3ccco3)cc(C(F)(F)F)n2)CC1` yielded a z-score of 0.625. `O=C(C1CCN(Cc2ccc(Cl)cc2)CC1)N1CCN(C(c2ccccc2)c2ccccc2)CC1` was tested, and the z-score was 0.432. `CCOc1nnc(C)c2c(C)n(-c3cccc(Cl)c3)nc12` was tested, and the z-score was -1.49. For `CCOC(=O)Cc1nnc(NC(=O)CSc2nncn2C)s1`, the z-score was 0.788. `CC12CCC(C(=O)N3CCCc4ccccc43)(OC1=O)C2(C)C` (stereo unspecified) gave a z-score of -0.143. For `CCOC(=O)COc1ccc(S(=O)(=O)c2ccc(OCC(=O)OCC)cc2)cc1`, the z-score was -0.387. In the case of `COC(=O)CC1SC(=O)NC1=Nc1ccc(OC)cc1` (stereo unspecified), the z-score is reported as -0.0377. In the case of `CCOC(=O)C(CC)Sc1nc2c(cnn2-c2ccccc2)c(=O)[nH]1` (stereo unspecified), the z-score is reported as -0.956. Compound `Cc1ccc(OC(=O)Cn2c(C(F)(F)F)nc3ccccc32)cc1` has a z-score of -0.104. In the case of `Cc1nn(C)cc1/C=C/C(=O)c1ccccc1`, the z-score is reported as -0.137. `CCOc1ccc(CC(=O)Nc2ccc(S(=O)(=O)Nc3cc(C)on3)cc2)cc1OCC` gave a z-score of -0.243. With `CCOc1ccc(C2=C(C=C(C#N)C#N)C(c3ccccc3)c3ccccc3O2)cc1` (stereo unspecified) the z-score was -0.552. In the case of `Cc1noc(/C=C/N(C)C)c1S(=O)(=O)N1CCCC(C(=O)N2CCCCC2)C1` (stereo unspecified), the z-score is reported as -0.0325. With `COc1cc2c(cc1OC)C1=NC(=O)CN1C(SCc1ccc(C)cc1)=N2` the z-score was -0.0474. Work on `COC(=O)CC1Oc2ccc(C)cc2NC1=O` (stereo unspecified) yielded a z-score of -0.352. Work on `CCCCNC(=O)NNC(=O)COc1cccc(C)c1C` yielded a z-score of -0.318. Work on `Cc1nc2ncnn2c(Nc2ccc3c(c2)OCCO3)c1C` yielded a z-score of -0.101. Work on `CC(NC(=O)C1CCCO1)c1ccccc1` (stereo unspecified) yielded a z-score of -0.283. For `O=C1C2CC=C(Cl)CC2C(=O)N1CCc1ccccc1` (stereo unspecified), the z-score was -0.115. Work on `COc1ccccc1C(c1nnnn1C(C)(C)C)N1CCN(C(=O)c2ccco2)CC1` (stereo unspecified) yielded a z-score of -0.115. `Cc1nnc(NC(=O)c2cccc(S(=O)(=O)N3CC(c4ccccc4)CC3=O)c2)s1` (stereo unspecified) showed a z-score of -0.712. `CN(Cc1nc(-c2cccnc2)no1)S(=O)(=O)c1ccccc1` gave a z-score of 0.141.
